# Results published in PubChem BioAssay AID686971 (National Center for Advancing Translational Sciences (NCATS), 2013).
# Out of some 360,000 compounds screened, about 7,500 (2.1%) were called active. Inconclusive means that the source gave no clear call. Such entries were picked first, then a sample of the others. Calls follow the shape of the dose curve; as a rule, active = well fitted cell-killing curve with a large enough effect; inconclusive = small, poorly fitted or top-dose-only effect, or effect the other way, or another doubt; inactive = no such curve, though single readings can be large or run the other way. Potencies of inconclusive entries are left out as doubtful fits.
# Assay: qHTS for induction of synthetic lethality in tumor cells producing 2HG: qHTS for the HT-1080-IDH1KD cell line;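 as to activity, negative = toxicity: 0% = DMSO wells and -100% = cell-free medium wells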
# Details: HT-1080 IDH1 knockdown viability, ATP luminescence, 48 h; activity, negative = toxicity: at 46.1 µM (top of the series) unless noted
# Summary of the method: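 HT-1080-IDH1KD cells (IDH1 knocked down), 750/well in RPMI with 5% FBS, treated with compound 48 h at 37 degrees C. Viability by CellTiter-Glo luminescence, normalised to DMSO and no-cell wells; concentration-response curves classed.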
# Potency is read from the fitted curve at half-maximal effect; tags tell the direction and shape of the fitted curve.
SMILES,Potency,"activity, negative = toxicity"
COc1cccc(-c2cccc(-c3nc(C(=O)NCc4ccc(Oc5ccccc5)cc4)cc4c3[C@H](CCO)N(S(=O)C(C)(C)C)C4)c2)c1 (some centres undefined),"inconclusive [cytotoxic, single point]",
Brc1ccc(N/N=C(/N=Nc2nn[nH]n2)c2ccccc2)cc1,active: 2.91 µM,
COC(=O)c1cccc(Cn2c(Cl)c(/C=N/NC(=O)c3ccccc3Cl)sc2=O)c1,,inactive: -11%
C/C(=N\N=C(/N)SC1CC(=O)N(c2cccc(Cl)c2)C1=O)c1cccs1 (centres undefined),"inconclusive [cytotoxic, single point]",
Cc1ccccc1NC(=O)NNC(=O)CCc1ccccc1,,inactive: 1.94%
Cc1ccccc1OCC(=O)NNC(=O)CN1C(=O)c2ccccc2C1=O,,inactive: 21.9%
C=CCNC(=O)c1ccccc1NC(=O)c1ccc(Cl)c(S(=O)(=O)Nc2ccccc2)c1,"inconclusive [cytotoxic, single point]",
Cc1ccc(-n2cc(-c3ccccc3)c3c(=O)[nH]cnc32)cc1,,inactive: 1.45%
COc1cc(C(=O)Nc2nc3ccccc3[nH]2)ccc1OC(F)F,"inconclusive [cytotoxic, single point]",
Cn1nc(CC(=O)NCc2ccc(C(F)(F)F)cc2)c2ccccc2c1=O,"inconclusive [cytotoxic, partial curve]",
Cc1ccc(C(C)C)c(OCc2ccc(C(=O)N/N=C/c3ccc(O)cc3O)cc2)c1,active: 2.91 µM,
CN(C)CCCNC(=S)NCC(c1ccc(Cl)cc1Cl)c1c[nH]c2ccccc12 (centres undefined),active: 16.4 µM,
Cc1cc(NC(=O)CSc2nnc(-c3ccccc3)c(-c3ccccc3)n2)no1,active: 5.17 µM,
C#CCOCCOCCOCCNc1nc(N2CCN(C(=O)CCCCCCCCCCNC(=O)[C@@H](CCSC)n3cc(CCO)nn3)CC2)nc(N2CCN(C(=O)CCCCCCCCCCNC(=O)[C@H](CCCN=C(N)N)n3cc(C[C@@H](C)CC)nn3)CC2)n1,"inconclusive [cytotoxic, single point]",
COC(=O)c1ccc(C(C(=O)NC2CCCCC2)N(CCc2ccccc2)C(=O)Cc2cccs2)cc1 (centres undefined),,inactive: 20.5%
O=C(O)CC(NC(=O)c1ccncc1)c1ccccc1 (centres undefined),"inconclusive [rising, partial curve, poor fit]",
Cc1ccc(S(=O)(=O)n2cc(C=O)c3ccccc32)cc1,active: 23.1 µM,
Cc1ccc(S(=O)(=O)Nc2ccc(O)c3ncccc23)cc1,active: 13 µM,
COc1ccc(NS(=O)(=O)c2cc(NC(=O)COc3ccccc3)ccc2N2CCOCC2)cc1,,inactive: -3.01%
Cc1onc(-c2ccccc2)c1C(=O)NNC(=S)NC(=O)/C=C/c1cccs1,"inconclusive [cytotoxic, partial curve]",
N#Cc1ccc(C(=O)Nc2nc3ccccc3[nH]2)cc1,"inconclusive [cytotoxic, partial curve]",
CC(=O)c1cn(CC(=O)Nc2cccc(C)c2C)c2ccccc12,,inconclusive: -31.2% [cytotoxic]
CC(=O)N/N=C/c1cc(C(C)(C)C)cc(/C=N/NC(C)=O)c1O,"inconclusive [cytotoxic, partial curve]",

SMILES,Potency,"activity, negative = toxicity"
Cn1c(=O)c2c(nc(Br)n2C/C=N/NC(N)=S)n(C)c1=O,"inconclusive [cytotoxic, single point]",
CCOc1ccccc1CN(Cc1ccco1)S(=O)(=O)c1ccc(-n2cnnn2)c(OC)c1,"inconclusive [cytotoxic, single point]",
Nc1c(Cl)cc(N=Nc2ccccc2)cc1Cl,"inconclusive [cytotoxic, partial curve]",
Cc1ccccc1C(=O)N1CCN(c2ccc(NC(=O)c3ccco3)cc2Cl)CC1,"inconclusive [cytotoxic, single point]",
CCOC(=O)[C@]12CCCC=C1N(Cc1ccc(Cl)cc1Cl)C(=O)[C@H](CC(=O)N1CCC(c3ccccc3)CC1)C2,"inconclusive [cytotoxic, single point]",
O=C(OCc1ccccc1)N(CCCCN(CCCNCc1ccccc1)C(=O)OCc1ccccc1)CCCNCc1ccccc1,"inconclusive [cytotoxic, single point]",
C/C(=N\NC(=S)NC(C)C)c1cccc([N+](=O)[O-])c1,,inactive: 4.6%
C=C1C(=O)O[C@@H]2[C@H]1[C@@H](OC(=O)/C(C)=C/C)C/C(C)=C\C(=O)/C=C(\C)[C@@H]2O,"inconclusive [cytotoxic, partial curve]",
CC1CCCC(NC(=O)CNC(=S)N(Cc2ccccc2)Cc2cccs2)C1C (centres undefined),"inconclusive [cytotoxic, single point]",
CO/N=C(/CS(=O)c1ccc(Br)cc1)c1ccc(OC)cc1 (centres undefined),,inactive: 8.51%
CCOC(=O)c1cnc(Nc2nc3ccccc3o2)nc1CN1CCN(C)CC1,active: 14.6 µM,
CC1(C)C2CCC1(C)C(OCC[N+](C)(C)CC(=O)OC1CCCCC1)C2 (centres undefined),"inconclusive [cytotoxic, single point]",
CCCn1nc(C(=O)Nc2cc(S(=O)(=O)Nc3ccc(OC)cc3)ccc2O)c2ccccc2c1=O,"inconclusive [cytotoxic, partial curve, poor fit]",
CCc1nc2c(OCc3cccc(Cl)c3)cccn2c1N(C)C(=O)Nc1ccccc1OC,"inconclusive [cytotoxic, single point]",
Cc1ccc(Cc2c(-c3ccc(Cl)cc3)nc3c(C)cc(Br)cn23)cc1,active: 16.4 µM,
CCOC(=O)Cn1cc(/C=N/NC(=O)CC#N)c2ccccc21,,inactive: 1.27%
COC(=O)CCC(=O)NC(=S)Nc1sc(C)c(C)c1C(N)=O,active: 0.326 µM,
COc1cc(OC)cc(C(=O)Nc2nc(-c3ccccc3)c(-c3ccccc3)o2)c1,"inconclusive [cytotoxic, partial curve]",
CC1(C(=O)Nc2cccc3ccccc23)CCN1C(=O)Cc1ccc(Cl)cc1Cl (centres undefined),"inconclusive [cytotoxic, single point]",
COc1ccc(CC(N)c2csc(Nc3cc(NCc4ccco4)ncn3)n2)cc1 (centres undefined),"inconclusive [cytotoxic, single point]",
CC(C)(C)NC(=O)COc1ccc2oc3c(c2c1)CCCC3,,inactive: -11.8%
Clc1ccccc1-c1nnc2sc(-c3ccc4c(c3)OCO4)nn12,"inconclusive [cytotoxic, single point]",
CCOC(=O)c1c(-c2ccc(C)o2)csc1NC(=O)CN1CCCCC1,"inconclusive [cytotoxic, single point]",

SMILES,Potency,"activity, negative = toxicity"
O=C(CCCCl)NC(=S)Nc1cc(C(F)(F)F)ccc1N1CCOCC1,,inactive: -13.3%
CSc1nc2nccc(/C=C\c3ccccc3)n2n1,"inconclusive [cytotoxic, single point]",
CSc1ccc(Cl)c(C(=O)Nc2ccc(C)cn2)c1,"inconclusive [cytotoxic, single point]",
Cc1csc(NC(=O)c2ccc[nH]c2=O)n1,"inconclusive [cytotoxic, partial curve]",
CCCCOc1ccc(C(=O)N/C(=C/C=C/c2ccccc2)C(=O)O)cc1,"inconclusive [cytotoxic, single point]",
O=C1NC[C@@H](CCCCN2CCN(CCC3CCCCC3)C(=O)C2=O)N(CCC2CCCCC2)C1=O,,inactive: 19%
CC1Cc2cc(S(=O)(=O)N3CCCCC3)ccc2N1C(=O)C1CCC1 (centres undefined),,inactive: -3.22%
Cc1ccc2nsnc2c1NC(=O)CCl,"inconclusive [cytotoxic, single point]",
CCc1nc2ccc(C(=O)NCCc3ccccn3)cn2c1N(CC)Cc1cccc(Br)c1,"inconclusive [cytotoxic, single point]",
O=C1NC[C@H](c2ccccc2)N(CCCCC2CCCCC2)C1=O,,inactive: 23.3%
Cc1onc(-c2c(F)cccc2Cl)c1C(=O)Nc1ccccc1N1CCOCC1,,inactive: -12.9%
Cc1ccccc1NC(=O)COC(=O)CCSc1ccccc1,,inactive: -2.29%
CC(C)c1cccc(-c2csc(C(O)c3cccc(Cl)c3)n2)c1 (centres undefined),"inconclusive [cytotoxic, single point]",
Cc1ccc(NC(=S)Nc2ccc(Cl)c(Cl)c2)c(OC(F)F)c1,,inactive: 4.94%
Cc1ccc(-c2cc(C(=O)NCCCN3CCCC3)c3ccccc3n2)cc1C,"inconclusive [cytotoxic, single point]",
COc1ccc(/C=N/NC(=O)c2sc(C)nc2C)cc1,"inconclusive [cytotoxic, single point]",
Cc1cc(C)c(C#N)c(SCC(O)COc2ccc(Br)cc2)n1 (centres undefined),"inconclusive [cytotoxic, single point]",
NS(=O)(=O)c1ccc2nc(NC(=O)Nc3ccc(F)cc3)sc2c1,"inconclusive [cytotoxic, partial curve]",
O=C(Nc1ccc(N2CCOCC2)cc1)c1csc([C@@H]2C[C@H](O)[C@@H](CO)O2)n1,,inactive: -0.852%
Cc1c(C(=O)NCc2cccnc2)oc2ccc(S(=O)(=O)N3CCCCC3)cc12,active: 14.1 µM,
C[C@H](CO)N1C[C@H](C)[C@H](CN(C)Cc2ccc(Oc3ccccc3)cc2)Oc2cc(Br)ccc2S1(=O)=O,"inconclusive [cytotoxic, single point]",
NC(=S)N/N=C/c1ccc(-c2ccc(SC(F)F)cc2)o1,"inconclusive [cytotoxic, single point]",
Cc1ccc(S(=O)(=O)C=CS(=O)(=O)c2ccc(C)cc2)cc1,"inconclusive [cytotoxic, single point]",
